Results as given in paper PMC5673899, “Structural basis for receptor recognition of pollen tube attraction peptides” (Nature Communications, 2017).
Results are given in words; binding and its absence hold for the method and conditions named. Some results given as binding are weak or reduced against the parent protein; the word gives no strength. Values belong to the binder of their own block, whether it stands above or below them.

Amino acid sequences for entries named in this document (tags omitted). Residues count along the entry.
UniProt Q8VZG8, residues 44-707: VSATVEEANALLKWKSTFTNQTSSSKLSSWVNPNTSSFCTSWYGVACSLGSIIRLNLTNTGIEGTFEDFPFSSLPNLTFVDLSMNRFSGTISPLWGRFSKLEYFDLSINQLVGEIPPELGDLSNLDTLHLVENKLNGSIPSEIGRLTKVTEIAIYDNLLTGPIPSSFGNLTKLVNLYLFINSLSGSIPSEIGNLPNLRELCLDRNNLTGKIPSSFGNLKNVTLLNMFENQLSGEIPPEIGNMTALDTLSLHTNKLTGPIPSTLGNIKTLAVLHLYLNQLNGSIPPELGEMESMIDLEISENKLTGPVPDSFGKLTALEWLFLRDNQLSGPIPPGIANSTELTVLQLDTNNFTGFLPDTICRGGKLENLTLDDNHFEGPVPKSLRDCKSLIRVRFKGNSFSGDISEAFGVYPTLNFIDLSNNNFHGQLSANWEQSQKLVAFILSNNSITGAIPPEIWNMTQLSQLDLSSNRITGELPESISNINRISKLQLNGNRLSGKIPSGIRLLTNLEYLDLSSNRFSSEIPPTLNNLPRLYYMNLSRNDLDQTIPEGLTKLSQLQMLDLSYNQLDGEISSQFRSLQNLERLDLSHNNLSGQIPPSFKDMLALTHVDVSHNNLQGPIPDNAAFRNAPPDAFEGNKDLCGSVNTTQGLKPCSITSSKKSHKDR

Assays:
[1] = target: T1, AtPRK6^LRR, extracellular LRR domain of AtPRK6 (residues 1-262) (Arabidopsis thaliana) (UniProt Q3E991); assay: SEC; purified LRR protein and AtLURE1.2 mixed at a molar ratio of about 1:3, 4 °C 30 min; gel filtration (Hiload 200) in 10 mM Bis-Tris pH 6.0, 100 mM NaCl; fractions on SDS-PAGE; both purified
T1 sequence: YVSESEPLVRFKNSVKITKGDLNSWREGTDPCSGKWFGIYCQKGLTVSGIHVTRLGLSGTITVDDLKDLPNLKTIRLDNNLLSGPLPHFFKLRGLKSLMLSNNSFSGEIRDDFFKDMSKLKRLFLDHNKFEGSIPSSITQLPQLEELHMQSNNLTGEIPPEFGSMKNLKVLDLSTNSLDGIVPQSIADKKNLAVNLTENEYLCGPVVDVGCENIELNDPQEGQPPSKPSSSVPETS

[2] = target: T1, AtPRK6^LRR, extracellular LRR domain of AtPRK6 (residues 1-262) (Arabidopsis thaliana); assay: SEC; AtPRK6^LRR co-expressed with the AtLURE1 peptide in High Five cells; secreted complex digested with Prescission Protease and purified (Ni-NTA, size-exclusion chromatography)
[3] = target: T1, AtPRK6^LRR, extracellular LRR domain of AtPRK6 (residues 1-262) (Arabidopsis thaliana); assay: crystal structure; AtPRK6^LRR-AtLURE1.2 complex, two crystal forms (1.85 Å and 2.10 Å); 0.2 M MgCl2, 0.1 M Bis-Tris pH 5.5, 25% PEG 3350, 18 °C; both purified
[4] = target: T2, AtPRK3^LRR (residues 1-241) (Arabidopsis thaliana) (UniProt Q9M1L7); assay: SEC; purified LRR protein and AtLURE1.2 mixed at a molar ratio of about 1:3, 4 °C 30 min; gel filtration (Hiload 200) in 10 mM Bis-Tris pH 6.0, 100 mM NaCl; fractions on SDS-PAGE; both purified
T2 sequence: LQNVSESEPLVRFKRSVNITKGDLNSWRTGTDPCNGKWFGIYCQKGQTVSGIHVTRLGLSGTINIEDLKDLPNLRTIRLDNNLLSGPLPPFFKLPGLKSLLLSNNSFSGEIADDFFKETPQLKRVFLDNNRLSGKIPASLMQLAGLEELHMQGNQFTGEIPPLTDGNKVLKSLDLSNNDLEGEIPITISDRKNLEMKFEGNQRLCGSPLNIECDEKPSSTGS

[5] = target: T3, MIK1^LRR (residues 1-633) (Arabidopsis thaliana) (UniProt Q9M0G7); assay: as above
T3 sequence: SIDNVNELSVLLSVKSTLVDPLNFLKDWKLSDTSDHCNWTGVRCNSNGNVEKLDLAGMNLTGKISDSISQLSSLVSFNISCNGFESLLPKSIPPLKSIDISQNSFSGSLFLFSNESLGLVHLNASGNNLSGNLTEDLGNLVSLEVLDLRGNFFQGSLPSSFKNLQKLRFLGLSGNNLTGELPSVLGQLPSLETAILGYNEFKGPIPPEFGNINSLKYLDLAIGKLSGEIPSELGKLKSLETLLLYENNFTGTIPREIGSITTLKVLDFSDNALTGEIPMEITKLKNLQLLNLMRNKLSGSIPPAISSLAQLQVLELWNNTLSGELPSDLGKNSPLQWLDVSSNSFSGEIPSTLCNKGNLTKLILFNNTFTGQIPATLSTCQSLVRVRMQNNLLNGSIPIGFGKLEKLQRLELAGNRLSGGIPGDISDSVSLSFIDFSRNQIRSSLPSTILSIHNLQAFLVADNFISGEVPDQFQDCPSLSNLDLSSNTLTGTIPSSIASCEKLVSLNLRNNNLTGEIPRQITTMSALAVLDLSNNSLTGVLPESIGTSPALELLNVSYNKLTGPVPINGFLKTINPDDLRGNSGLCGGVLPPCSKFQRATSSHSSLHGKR

[6] = target: MIK2^LRR (residues 1-707) (Arabidopsis thaliana) (UniProt Q8VZG8); assay: as above
[7] = target: T2, AtPRK3^LRR (residues 1-241) (Arabidopsis thaliana); assay: condition: about 0.9 mM AtLURE1.2 injected into 0.08 mM AtPRK3^LRR; ITC; ITC200, 25 °C, 200 mM HEPES pH 7.0, 100 mM NaCl; about 0.9 mM AtLURE1.2 injected (20 x 2 μl) into 0.08 mM LRR protein in the cell; both purified
[8] = target: T3, MIK1^LRR (residues 1-633) (Arabidopsis thaliana); assay: condition: similar concentration (about 0.9 mM AtLURE1.2 into 0.08 mM LRR protein); ITC; ITC200, 25 °C, 200 mM HEPES pH 7.0, 100 mM NaCl; about 0.9 mM AtLURE1.2 injected (20 x 2 μl) into 0.08 mM LRR protein in the cell; both purified
[9] = target: MIK2^LRR (residues 1-707) (Arabidopsis thaliana) (UniProt Q8VZG8); assay: as above
[10] = target: T2, AtPRK3^LRR (residues 1-241) (Arabidopsis thaliana); assay: pull-down; His-tagged LRR protein mixed with excess AtLURE1.2 peptide and held on Ni-NTA resin, on ice 30 min; washed five times with 25 mM Tris pH 8.0, 150 mM NaCl, 15 mM imidazole; eluted with 250 mM imidazole; SDS-PAGE, Coomassie; both purified
[11] = target: T4, AtPRK4^LRR (residues 1-277) (Arabidopsis thaliana) (UniProt Q9LJY0); assay: as above
T4 sequence: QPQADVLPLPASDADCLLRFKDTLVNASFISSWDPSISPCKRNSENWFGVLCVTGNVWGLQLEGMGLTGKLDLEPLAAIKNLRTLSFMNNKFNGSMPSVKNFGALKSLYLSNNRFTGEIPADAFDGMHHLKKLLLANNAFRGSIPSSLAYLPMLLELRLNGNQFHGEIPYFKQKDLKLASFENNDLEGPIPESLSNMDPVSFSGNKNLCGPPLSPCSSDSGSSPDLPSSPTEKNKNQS

[12] = target: T5, AtPRK5^LRR (residues 1-279) (Arabidopsis thaliana) (UniProt Q9LPT1); assay: as above
T5 sequence: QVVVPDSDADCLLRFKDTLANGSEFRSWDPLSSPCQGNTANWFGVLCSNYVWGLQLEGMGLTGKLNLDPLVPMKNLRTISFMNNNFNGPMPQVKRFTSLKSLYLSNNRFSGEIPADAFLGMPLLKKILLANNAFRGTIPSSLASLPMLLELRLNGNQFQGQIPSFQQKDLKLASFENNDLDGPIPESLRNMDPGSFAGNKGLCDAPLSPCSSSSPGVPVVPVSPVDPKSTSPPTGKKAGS

[13] = target: T1, AtPRK6^LRR, extracellular LRR domain of AtPRK6 (residues 1-262) (Arabidopsis thaliana); assay: as above
[14] = target: T3, MIK1^LRR (residues 1-633) (Arabidopsis thaliana); assay: as above
[15] = target: MIK2^LRR (residues 1-707) (Arabidopsis thaliana) (UniProt Q8VZG8); assay: as above

B2: AtLURE1.1, mature form (residues 20-94) (peptide, UniProt Q4VP09 20-94)
chain: ILIKESSEEERIYPFNPVASPFDPRSLNQILKIGKIGYCFDCARACMRRDRYIRTCSFERKLCRCSYSHIHHTHG
binding [2]: binds

B3: AtLURE1.2, mature form (residues 20-90) (peptide, UniProt Q4VP08 20-90, looked up)
chain: TLINGSSDEERTYSFSPTTSPFDPRSLNQELKIGRIGYCFDCARACMRRGKYIRTCSFERKLCRCSISDIK
notes: AtLURE1.2, defensin-like cysteine-rich peptide of Arabidopsis thaliana, mature form, residues 20-90; Cloned in pFastBac-1 behind a modified N-terminal hemolin signal peptide and a 6xHis-SUMO tag; Likely glycosylated (apparent 14 kDa); also called AtLURE1.2 peptide; source: also co-expressed with AtPRK6^LRR for the crystallised complex; not shown: His6, N-terminal, cleaved; SUMO, N-terminal, …
binding [3]: binds
binding [4]: no binding
binding [1]: binds
binding [5]: no binding
binding [6]: no binding
binding [7]: no binding
binding [8]: no binding
binding [9]: no binding
binding [10]: no binding
binding [11]: no binding
binding [12]: no binding
binding [13]: binds
binding [14]: no binding
binding [15]: no binding

B4: AtLURE1.3, mature form (residues 21-91) (peptide, UniProt Q4VP10 21-91)
chain: ILINESSDEERTYSFSPTTSPFDPRSLNQELKIGRIGYCFDCARACMRRGKYIRTCSFERKLCRCSISGIK
binding [2]: binds

Further lines, results first:

binding [1]: no binding
B1: AtPRK6^LRR, extracellular LRR domain of AtPRK6 (residues 1-262) (domain or fragment, UniProt Q3E991 27-262)
chain: YVSESEPLVRFKNSVKITKGDLNSWREGTDPCSGKWFGIYCQKGLTVSGIHVTRLGLSGTITVDDLKDLPNLKTIRLDNNLLSGPLPHFFKLRGLKSLMLSNNSFSGEIRDDFFKDMSKLKRLFLDHNKFEGSIPSSITQLPQLEELHMQSNNLTGEIPPEFGSMKNLKVLDLSTNSLDGIVPQSIADKKNLAVNLTENEYLCGPVVDVGCENIELNDPQEGQPPSKPSSSVPETS

binding [2]: binds
B5: AtLURE1.4, mature form (residues 20-90) (peptide, UniProt P0CAY6 20-90)
chain: ILINESSDEQRIYSFSPTTSPFDPRSLNQELKIGRIGYCFDCARACMRRGKYIRTCSFERKLCRCSISDIK
